From PubChem BioAssay AID938 (National Center for Advancing Translational Sciences (NCATS), 2007)
Out of some 73,000 compounds screened, about 1,800 (2.5%) were called active. Roughly 13% stayed inconclusive and do not appear here. The call rests on the fitted dose curve; in most records, active means well fitted activation curve with a large enough effect; inconclusive means small, poorly fitted or top-dose-only effect; inactive means no such curve, though single readings can be large or run the other way. The entries are a selection whose mix differs from that of the whole data set. The source holds several records for some structures; these can differ, active in one and inactive in another.

Test: qHTS Assay for Agonists of the Thyroid Stimulating Hormone Receptor: Activators of Intracellular cAMP Concentrations in Parental HEK 293; further: nearly all actives have a fitted effect of over 55% in size; on activation: % of control where 0% means no effect
Conditions: parental HEK293 CNG cAMP sensor, membrane potential fluorescence; series mostly up to 57.1 µM; activation: at the top concentration
From the text: NIH Chemical Genomics Center [NCGC]
NIH Molecular Libraries Screening Centers Network [MLSCN]
PI Name: Dr. Marvin Gershengorn
This cell based assay utilized a cyclic nucleotide gated ion channel (CNG) as a biosensor for cAMP induction. HEK 293 cells stably expressing the modified CNG were purchased from BD biosciences (http://www.atto.com/products/actone/features_benefits.shtml) . Stimulation of cAMP production causes the CNG to open and subsequent membrane depolarization to occur. A fluorescent membrane potential dye (BD biosciences) was utilized to detect cAMP stimulation in cells.
The cells were maintained in DMEM medium (Invitrogen) containing 10 % FBS (Hyclone), 100 units/ml Penicillin, 100 ug/ml Streptomycin (Invitrogen), and 250 ug/ml Geneticin (Invitrogen) and 1 ug/ml Puromycin (Invitrogen) at 37C in 5% CO2. This assay was used as a counterscreen to "qHTS Assay for Agonists of the Thyroid Stimulating Hormone Receptor", to control for compounds signaling through endogenous receptors and other targets of HEK 293 cells.
NCGC Assay Protocol Summary:
High Throughput Screening. Freshly passaged cells were dispensed into 1536-well assay plates at 4 ul/well in DMEM containing phenol red (Invitrogen), 10% FCS (Hyclone), and 100 units/ml Penicillin, 100 ug/ml Streptomycin (Invitrogen) and incubated at 37 C with 5% CO2 for 20 to 36 hrs before the robotic screening. The screen was initiated by addition of 4 ul/well membrane potential dye containing 100 uM RO 20-1724 (Sigma Aldrich), followed by 60 min incubation at room temperature to allow for dye equilibration across the cell membrane. 23 nl/well compound or control was then added to the assay plates, which were incubated for additional 30 min before reading a Envision fluorescence plate reader (Perkin Elmer) in bottom-read mode for fluorescence intensity (emission at 590 nm).
Keywords: cAMP, CNG Ion Channel, quantitative high throughput screening, qHTS, HTS, probe identification, CNG, cAMP, cyclic nucleotide gated ion channel PubChem
Potency means the concentration at half of the fitted maximal effect.

With `O=[N+]([O-])c1cccc(CCl)c1` as the compound, how does the “activation” value read?
Its value is inactive: -31.7%.

For `Cc1ccc([N+](=O)[O-])cc1N`, which “activation” value is on record?
Its value is inactive: -16.8%.

With `CCN(CC)CCO` as the compound, how does the “activation” value read?
Its value is inactive: -47.9%.

For `Clc1ccc(C(Cl)(Cl)Cl)c(Cl)c1`, which “activation” value is on record?
Its value is inactive: 52.3%.

With `CN1CCN(C(=O)O[C@@H]2c3nccnc3C(=O)N2c2ccc(Cl)cn2)CC1` as the compound, how does the “activation” value read?
Its value is inactive: 4.85%.

With `C[N+](C)(C)CC#CCN1CCCC1=O` as the compound, how does the “activation” value read?
The value was inactive: 10.6%.

With `Nc1ccc(Sc2ccc(N)cc2)cc1` as the compound, how does the “activation” value read?
The value was inactive: 13.4%.

With `Clc1ccccc1Cl` as the compound, how does the “activation” value read?
Its value is inactive: -44.7%.

With `O=C(O)C(Cl)(Cl)Cl` as the compound, how does the Potency read?
The Potency was “inactive”.

For `CCCCCl`, which “activation” value is on record?
The value was inactive: 11.1%.

For `CC[C@@H](CO)NC(=O)[C@H]1C=C2c3cccc4[nH]cc(c34)C[C@H]2N(C)C1`, which “activation” value is on record?
The value was inactive: -1.2%.

Which “activation” value does the source give for `CC(C)CCNC(=O)c1c(N)n(CC2CCCO2)c2nc3ccccc3nc12` (configuration not stated) here?
The value was inactive: -49.9%.

Which “activation” value does the source give for `C=CC(=O)OCC(C)C` here?
Its value is inactive: -1.33%.

With `O=C(O)CCCc1ccc(N(CCCl)CCCl)cc1` as the compound, how does the Potency read?
Its Potency is “inactive”.

With `CN1C(=O)CCS(=O)(=O)[C@H]1c1ccc(Cl)cc1` as the compound, how does the “activation” value read?
Its value is inactive: 2.34%.

For `CCCCOC(=O)c1ccccc1C(=O)OCc1ccccc1`, which Potency is on record?
Its Potency is active: 15.8 µM.

Which “activation” value does the source give for `c1nc[nH]n1` here?
The value was inactive: -16.1%.

For `CCOC(=O)c1ccccc1C(=O)OCC`, which “activation” value is on record?
Its value is inactive: 14.1%.

With `NC(N)=NOCC[C@H](N)C(=O)O` as the compound, how does the Potency read?
Its Potency is “inactive”.

Which “activation” value does the source give for `CCCCC#N` here?
The value was inactive: 8.65%.

Which Potency does the source give for `CN1CCc2cc3c(cc2[C@@H]1[C@@H]1OC(=O)c2c1ccc1c2OCO1)OCO3` here?
The Potency was “inactive”.

Which activation does the source give for `C=C[C@@H]1CN2CC[C@H]1C[C@H]2[C@H](O)c1ccnc2ccccc12` here?
Its activation is inactive: -6.49% [at 11.4 µM].

Which “activation” value does the source give for `O=[N+]([O-])c1c(Cl)c(Cl)cc(Cl)c1Cl` here?
The value was inactive: 7.7%.

Which “activation” value does the source give for `OC1(c2ccc(Cl)cc2)CCN(Cc2c[nH]c3ccccc23)CC1` here?
The value was inactive: 24.5%.

For `CCN1C(=O)/C(=C2\C=Cc3ccccc3N2CC)OC1=S`, which “activation” value is on record?
The value was inactive: -65.6%.

With `CC(C)(C)OOC(C)(C)C` as the compound, how does the “activation” value read?
The value was inactive: 30.3%.

For `OC(c1ccc(Cl)cc1)(c1ccc(Cl)cc1)C(Cl)(Cl)Cl`, which “activation” value is on record?
The value was inactive: -7.02%.

For `O=[N+]([O-])c1ccccc1CCl`, which “activation” value is on record?
Its value is inactive: 18.3%.

With `CC(C)c1ccc2c(c1)CC[C@H]1[C@](C)(CN)CCC[C@]21C` as the compound, how does the “activation” value read?
Its value is inactive: -55.3%.

Which “activation” value does the source give for `C/C(O)=C(/C#N)C(=O)Nc1cc(Br)ccc1Br` here?
The value was inactive: 26.7%.

Which Potency does the source give for `Cc1cccc(N2CCc3c2nc2ccccc2c3N)c1` here?
Its Potency is “inactive”.

With `c1cc2n(c1)-c1c(ccc3c1OCO3)CNC2c1ccc2c(c1)OCO2` (configuration not stated) as the compound, how does the “activation” value read?
The value was inactive: -42.6%.

For `c1ccc2cc3c(cc2c1)-c1cccc2cccc-3c12`, which “activation” value is on record?
Its value is inactive: 9.08%.

For `CCOP(=O)(OCC)OCC`, which “activation” value is on record?
Its value is inactive: -25.6%.

For `Cc1cc(-c2ccc(N)c(C)c2)ccc1N`, which “activation” value is on record?
Its value is inactive: -24.7%.

Which Potency does the source give for `CSc1nc2ccccc2n1C(=O)Oc1ccccc1` here?
The Potency was active: 25.1 µM.

With `CC(C)C#N` as the compound, how does the “activation” value read?
Its value is inactive: -4.61%.

With `CN(C)C(=O)Nc1ccc(Cl)cc1` as the compound, how does the “activation” value read?
The value was inactive: -19.8%.

Which “activation” value does the source give for `NCc1cc(=O)[nH]o1` here?
The value was inactive: 3.31%.

Which Potency does the source give for `CCCN(CCC)[C@@H]1CCc2cccc(O)c2C1` here?
Its Potency is “inactive”.

Which “activation” value does the source give for `CCN(CC)N=O` here?
Its value is inactive: -19.6%.

Which “activation” value does the source give for `ClC=C(Cl)Cl` here?
The value was inactive: -20.6%.

Which “activation” value does the source give for `CCCCC(CC)COC(=O)CCCCC(=O)OCC(CC)CCCC` (configuration not stated) here?
The value was inactive: -21.7%.

With `CC(C)NC[C@@H](O)COc1cccc2[nH]ccc12` as the compound, how does the Potency read?
Its Potency is “inactive”.

With `NCCc1c[nH]c2ccc(O)cc12` as the compound, how does the “activation” value read?
The value was inactive: -4.88% [at 25.6 µM].

For `O=c1[nH]cc(F)c(=O)[nH]1`, which “activation” value is on record?
Its value is inactive: 2.22%.

Which “activation” value does the source give for `CCOCCOC(C)=O` here?
The value was inactive: 1.39%.

With `[N-]=[N+]=[N-]` as the compound, how does the “activation” value read?
The value was inactive: -3.35%.

For `COc1ccc(CNC(=O)/C=C\c2ccc3[nH]cc(CCN(C)C)c3c2)cc1`, which “activation” value is on record?
Its value is inactive: 18.2%.

Which Potency does the source give for `CN=C(NC#N)NCCSCc1nc[nH]c1C` here?
Its Potency is “inactive”.

With `Cc1cccc(C)c1NC1=NCCCS1` as the compound, how does the Potency read?
Its Potency is “inactive”.

With `C=CC(N)=O` as the compound, how does the “activation” value read?
Its value is inactive: 10.7%.

For `Nc1ccccc1`, which “activation” value is on record?
The value was inactive: 33.1%.

For `Nc1ccc(-c2ccc(N)c(Cl)c2)cc1Cl`, which “activation” value is on record?
The value was inactive: -38.3%.

For `CN1CCN(C(=O)OC2c3nccnc3C(=O)N2c2ccc(Cl)cn2)CC1` (configuration not stated), which “activation” value is on record?
The value was inactive: 1.83%.

For `Nc1cc(Cl)ccc1Cl`, which “activation” value is on record?
The value was inactive: 0.0527%.

With `c1ccccc1` as the compound, how does the “activation” value read?
Its value is inactive: 12.5%.

For `C[C@]12CC[C@H](O)C[C@@H]1CC[C@H]1[C@H]2CC[C@]2(C)[C@H](C(=O)CO)CC[C@@H]12`, which “activation” value is on record?
The value was inactive: 3.98%.

With `COS(C)(=O)=O` as the compound, how does the “activation” value read?
The value was inactive: -27.8%.

With `CC[N+](C)(C)c1cccc(O)c1` as the compound, how does the “activation” value read?
Its value is inactive: -3.61% [at 25.6 µM].

Which “activation” value does the source give for `CC12CCC(=O)C=C1CCC1C2CCC2(C)C(O)CCC12` (configuration not stated) here?
Its value is inactive: 5.22%.

For `C=CCO`, which “activation” value is on record?
The value was inactive: -2.58%.

For `c1ccc2c(c1)[I+]c1ccccc1-2`, which “activation” value is on record?
Its value is inactive: 20.4%.

With `O=C(c1cc2ccccn2n1)N1CCN(Cc2ccccc2)CC1` as the compound, how does the “activation” value read?
The value was inactive: -40.9%.

For `CC(Cl)(Cl)Cl`, which “activation” value is on record?
The value was inactive: -17.3%.

Which Potency does the source give for `N#CCCCl` here?
The Potency was “inactive”.

With `CC(=O)NNc1ccccc1` as the compound, how does the “activation” value read?
The value was inactive: 25.1%.

For `COc1ccc2c(c1)C13CCCC[C@@H]1C(C2)N(C)CC3` (some centres not stated), which “activation” value is on record?
The value was inactive: 9.94% [at 25.6 µM].

With `CC1(C)Cc2c(sc3c2C(=O)NC(c2cccnc2)N3)CO1` (configuration not stated) as the compound, how does the “activation” value read?
The value was inactive: -33.3%.

Which “activation” value does the source give for `CC[C@]1(C2=NCCN2)Cc2ccccc2O1` here?
The value was inactive: 18.9%.

For `Fc1ccc(C(OCCN2CCN(CCCc3ccccc3)CC2)c2ccc(F)cc2)cc1`, which Potency is on record?
Its Potency is “inactive”.

With `Cc1c(OCC(F)(F)F)ccnc1CS(=O)c1nc2ccccc2[nH]1` (configuration not stated) as the compound, how does the “activation” value read?
The value was inactive: 6.36% [at 25.6 µM].

For `CC(C)(C)n1c(O)c(C=Nc2ccc3c(c2)CCC3)c(=O)[nH]c1=O`, which Potency is on record?
The Potency was active: 25.1 µM.

Which “activation” value does the source give for `COc1cc2c(cc1OC)[C@H](C)NCC2` here?
Its value is inactive: -2.39%.

Which “activation” value does the source give for `NNC(N)=O` here?
Its value is inactive: -20.7%.

With `COc1ccc(Cc2nccc3cc(OC)c(OC)cc23)cc1OC` as the compound, how does the “activation” value read?
Its value is inactive: 22% [at 25.6 µM].

For `Nc1ccc(Cl)c(Cl)c1`, which “activation” value is on record?
The value was inactive: -3.24%.

With `Cc1cccc(CN(C)C)c1OC(=O)N(C)C` as the compound, how does the “activation” value read?
Its value is inactive: -54.7%.

With `C[C@]12N[C@H](Cc3ccccc31)c1ccccc12` as the compound, how does the “activation” value read?
The value was inactive: 11.5%.

Which Potency does the source give for `O[C@@H]1CCCC[C@H]1N1CCC(c2ccccc2)CC1` here?
The Potency was “inactive”.

Which “activation” value does the source give for `CNC(=O)O/N=C/C(C)(C)S(C)=O` (configuration not stated) here?
The value was inactive: -28.3%.

With `CSSC` as the compound, how does the “activation” value read?
The value was inactive: 8.52%.

With `C=CC(=O)OCC(CC)CCCC` (configuration not stated) as the compound, how does the “activation” value read?
The value was inactive: 2.16%.

With `CN(C)c1ccc(N=Nc2ccccc2)cc1` as the compound, how does the “activation” value read?
The value was inactive: -27%.

For `Cc1coc2c1CCC(C)C2` (configuration not stated), which “activation” value is on record?
The value was inactive: -5.99%.

Which “activation” value does the source give for `Oc1ccc2c3c1O[C@H]1c4c(c5ccccc5n4Cc4ccccc4)C[C@]4(O)[C@H](C2)N(CC2CC2)CC[C@@]314` here?
Its value is inactive: -32.2%.

With `N[C@H](CCCCCP(=O)(O)O)C(=O)O` as the compound, how does the Potency read?
Its Potency is “inactive”.
